The campaign covered roughly 310,000 compounds. About 14,000 (4.5%) showed an effect of 50% or more. The effect is printed as a negative number. This is one part of the list.
molecular target: human ether-à-go-go-related gene (hERG) potassium channel (human, UniProt Q12809); assay: primary screen, population patch clamp on CHO cells stably expressing hERG
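Also: peak tail current of the secondary pulse compared with the same well before compound.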

Sequence of human ether-à-go-go-related gene (hERG) potassium channel (Q12809 whole entry, looked up): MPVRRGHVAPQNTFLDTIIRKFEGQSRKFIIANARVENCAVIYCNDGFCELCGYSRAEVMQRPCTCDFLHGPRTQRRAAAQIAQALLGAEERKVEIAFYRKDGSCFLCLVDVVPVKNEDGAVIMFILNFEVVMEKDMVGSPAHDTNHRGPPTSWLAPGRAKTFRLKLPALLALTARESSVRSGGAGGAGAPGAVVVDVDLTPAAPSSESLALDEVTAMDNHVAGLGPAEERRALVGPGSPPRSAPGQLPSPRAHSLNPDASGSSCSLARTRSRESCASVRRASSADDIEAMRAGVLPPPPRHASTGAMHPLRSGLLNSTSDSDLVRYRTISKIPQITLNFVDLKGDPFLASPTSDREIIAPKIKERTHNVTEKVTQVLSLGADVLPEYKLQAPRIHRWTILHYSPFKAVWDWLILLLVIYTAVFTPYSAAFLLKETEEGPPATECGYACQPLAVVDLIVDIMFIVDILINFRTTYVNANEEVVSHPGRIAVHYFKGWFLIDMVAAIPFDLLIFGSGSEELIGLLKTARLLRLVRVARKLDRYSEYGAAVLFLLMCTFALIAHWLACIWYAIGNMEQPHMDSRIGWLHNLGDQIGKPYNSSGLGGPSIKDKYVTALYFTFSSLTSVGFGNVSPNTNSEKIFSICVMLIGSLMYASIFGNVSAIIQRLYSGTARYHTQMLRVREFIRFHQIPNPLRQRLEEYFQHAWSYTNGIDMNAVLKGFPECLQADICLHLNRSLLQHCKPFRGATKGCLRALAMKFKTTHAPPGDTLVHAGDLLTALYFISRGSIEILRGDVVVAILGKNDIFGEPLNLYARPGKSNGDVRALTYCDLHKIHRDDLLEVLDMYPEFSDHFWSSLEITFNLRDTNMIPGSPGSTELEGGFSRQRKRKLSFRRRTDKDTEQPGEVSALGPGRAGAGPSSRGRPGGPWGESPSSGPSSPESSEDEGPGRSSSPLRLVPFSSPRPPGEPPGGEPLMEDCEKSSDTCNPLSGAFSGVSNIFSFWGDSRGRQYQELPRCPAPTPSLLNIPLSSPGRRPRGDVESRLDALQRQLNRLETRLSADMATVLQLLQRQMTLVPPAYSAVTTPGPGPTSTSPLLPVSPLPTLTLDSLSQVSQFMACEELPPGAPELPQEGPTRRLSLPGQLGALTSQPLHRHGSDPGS

Compared with `O=C(O)c1ccccc1-n1c2ccccc2c2ccccc21`, `Oc1ccc(/C=N/NP(=S)(c2ccccc2)c2ccccc2)cc1O` is lower in “hERG current change (%, negative = inhibition) at 10uM” value: 19% for the first, -3.93% for the second.

Going from `O=C(NC(NC(=S)Nc1ccc(Cl)c(Cl)c1)C(Cl)(Cl)Cl)c1ccco1` (stereo not shown) to `CC(=O)c1cccc(NC(=S)NCc2ccco2)c1`, the “hERG current change (%, negative = inhibition) at 10uM” value falls from 8.12% to 6.83%.

Compared with `CCN(Cc1cnn(C)c1)C(=O)C1CCC(=O)N(CCc2ccc(OC)cc2)C1` (stereo not shown), `COc1ccc(CCn2c(C)cc(C(=O)COC(=O)c3ccc(NC(=O)CC#N)cc3)c2C)cc1` is lower in “hERG current change (%, negative = inhibition) at 10uM” value: 14.6% for the first, -2.55% for the second.

Going from `O=C(Cn1cc(C(F)(F)F)cc(Cl)c1=O)NCc1ccc(Cl)cc1Cl` to `CCn1cc(CCCC(=O)NCc2cccnc2)c2ccccc21`, the “hERG current change (%, negative = inhibition) at 10uM” value falls from 5.16% to -4.69%.

Compared with `Cc1nn(Cc2ccccc2)c(Cl)c1/C=C/C(=O)OCC(=O)N1CCCC1=O`, `CCC(C)[C@H](NC(=O)NC1CCN(Cc2ccccc2)CC1)C(=O)OC` (stereo partly shown) is higher in “hERG current change (%, negative = inhibition) at 10uM” value: -9.13% for the first, -8.81% for the second.

Going from `Cc1ccc(C(=O)O/N=C(\N)Cc2cccc3ccccc23)cc1` to `O=C(Cc1coc(-c2ccc(F)cc2)n1)Nc1ccccc1`, the “hERG current change (%, negative = inhibition) at 10uM” value falls from 20.9% to -15.4%.

Going from `COc1cc2c(C(=O)N3CCN(c4cccc(Cl)c4)CC3)cn(C)c(=O)c2cc1OC` to `Cc1cccc(N2CCN(C(=O)CN3C(=O)NC(C)(C)C3=O)CC2)c1C`, the “hERG current change (%, negative = inhibition) at 10uM” value rises from -53.1% to 2.51%.

Compared with `O=S(=O)(c1ccccc1)N1CCN=C1SCc1ccccc1Cl`, `Cc1cccc(S(=O)(=O)NCCc2cn3ccccc3n2)c1` is higher in “hERG current change (%, negative = inhibition) at 10uM” value: -8.53% for the first, 5.55% for the second.

First: Cc1ccccc1OCCC(=O)N1CCN(S(=O)(=O)c2ccc(Cl)cc2)CC1
Second: O=S(=O)(c1ccc2ccccc2c1)N1CCN(C(=S)Nc2ccccc2F)CC1
The “hERG current change (%, negative = inhibition) at 10uM” value of the first is lower: -23.9% for the first, -7.61% for the second.

First: COc1cc(C)c(S(=O)(=O)N2CCCC2)cc1C
Second: O=C(NCc1ccccn1)c1cc(S(=O)(=O)N2CCCCCC2)ccc1Cl
The “hERG current change (%, negative = inhibition) at 10uM” value of the first is higher: 10.4% for the first, 5.54% for the second.

First: CC(C(=O)NCc1ccco1)c1ccc([N+](=O)[O-])cc1 (stereo not shown)
Second: O=C1Nc2ccccc2C1C(C[N+](=O)[O-])c1ccccc1 (stereo not shown)
The “hERG current change (%, negative = inhibition) at 10uM” value of the first is lower: -2.02% for the first, 6.45% for the second.

Going from `CCCCn1nc(NC(=O)COC)c2cc3ccc(C)cc3nc21` to `Cc1cccc2cc3c(NC(=O)C(C)C)nn(C)c3nc12`, the “hERG current change (%, negative = inhibition) at 10uM” value rises from -14.7% to 16.9%.

Going from `COc1cc(C2C(C(C)=O)=C(C)Nc3ncnn32)ccc1O` (stereo not shown) to `CC(=O)c1sc(NC(=O)CSC(C)C(=O)Nc2cc(C)on2)nc1-c1ccccc1` (stereo not shown), the “hERG current change (%, negative = inhibition) at 10uM” value falls from 5.74% to -13.3%.

Compared with `Cc1nnc(NC(=O)CSc2nnc(CC(=O)Nc3ccccc3C)n2C)s1`, `Cc1cccc(NC(=O)COC(=O)Cc2cccs2)c1C` is lower in “hERG current change (%, negative = inhibition) at 10uM” value: 25.9% for the first, 22.1% for the second.

First: CC(C)=CC(=O)Nc1nnc(C(C)C)s1
Second: Cc1sc(NC(=O)C2CC(Cl)=CCC2C(=O)O)c(C#N)c1C (stereo not shown)
The “hERG current change (%, negative = inhibition) at 10uM” value of the first is lower: 1.44% for the first, 16% for the second.

Going from `O=C(O)CC1(CC(=O)Nc2ccc3sccc3c2)CCCCC1` to `CCOC(=O)C1CCN(CCC(=O)Nc2ccc(F)cc2)CC1`, the “hERG current change (%, negative = inhibition) at 10uM” value falls from 15.6% to -31%.

First: CCN(CC)CCNC(=O)c1[nH]c2ccc(OCc3ccccc3)cc2c1C
Second: COc1ccc(NC(=O)c2ccccc2OCc2ccc(F)cc2)c(OC)c1
The “hERG current change (%, negative = inhibition) at 10uM” value of the first is lower: -74.6% for the first, 0.588% for the second.

Compared with `CCCCCc1ccc(S(=O)(=O)NCCc2ccncc2)cc1`, `CC(=O)N1CC(C)Sc2ccc(S(=O)(=O)NCc3ccc(Cl)cc3)cc21` (stereo not shown) is lower in “hERG current change (%, negative = inhibition) at 10uM” value: -30.2% for the first, -37.8% for the second.

First: Cc1ccc(-c2nnn(CCC(=O)NC3CCCC3)n2)cc1
Second: Cc1ccc(Nc2nc(N)nc(CSC(=S)N3CCOCC3)n2)cc1
The “hERG current change (%, negative = inhibition) at 10uM” value of the first is higher: -1.61% for the first, -35.6% for the second.

Compared with `O=C(COc1ccc2cc(-c3ccccc3)c(=O)oc2c1)NCC1CCC(C(=O)O)CC1` (stereo not shown), `Cc1oc(-c2ccc3c(c2)OCCO3)cc1C(=O)NC(Cc1ccccc1)C(=O)O` (stereo not shown) is higher in “hERG current change (%, negative = inhibition) at 10uM” value: 13.1% for the first, 13.2% for the second.

Going from `CCc1c(C)c2ccc(OC3CCCCC3=O)cc2oc1=O` (stereo not shown) to `Cc1ccc2c(CSc3nnc(N)s3)cc(=O)oc2c1`, the “hERG current change (%, negative = inhibition) at 10uM” value falls from 15.5% to -11.6%.

Compared with `CCN(CC)c1ccc(N)cc1S(=O)(=O)Nc1ccccc1OC`, `COc1ccccc1N1CC=C(c2cccc([N+](=O)[O-])c2)NC1=O` is lower in “hERG current change (%, negative = inhibition) at 10uM” value: 6.89% for the first, 0.557% for the second.

First: N#CCCNC(=O)CCN1CCCCC1
Second: N#Cc1c(NC(=O)C(=O)NCCCN2CCOCC2)sc2c1CCC2
The “hERG current change (%, negative = inhibition) at 10uM” value of the first is higher: 0.152% for the first, -4.52% for the second.

Going from `C=CCNC(=O)c1onc(CSc2ccc(Cl)cc2)c1C(=O)O` to `O=C(Nc1ccc(Cl)cc1)OCc1cc(-c2ccccc2Cl)on1`, the “hERG current change (%, negative = inhibition) at 10uM” value falls from 15.2% to 7.51%.

Compared with `Cc1ccc(-n2cnnn2)cc1Cl`, `C=CCc1cccc(CNn2cnnc2)c1O` is higher in “hERG current change (%, negative = inhibition) at 10uM” value: -18.8% for the first, 17.7% for the second.

First: COc1ccccc1CNC(=O)COC(=O)C12CC3CC(CC(O)(C3)C1)C2
Second: COc1ccccc1COCC(O)CNCCc1ccc(C(F)(F)F)cc1.O=C(O)C(=O)O (stereo not shown)
The “hERG current change (%, negative = inhibition) at 10uM” value of the first is higher: -4.75% for the first, -56.5% for the second.

First: O=C(COC(=O)c1cc(Cl)cc(Cl)c1)NCCN1C(=O)CSC1=O
Second: O=C(COC(=O)c1cc(S(=O)(=O)NCc2ccccc2)ccc1O)NCc1ccccc1
The “hERG current change (%, negative = inhibition) at 10uM” value of the first is lower: -10.1% for the first, -1.07% for the second.

Compared with `CSc1nnc2n(-c3ccc(C)cc3)c(=O)c3c4c(sc3n12)COC(C(C)C)C4` (stereo not shown), `Cc1ccc(Oc2nsnc2N2CCOCC2)cc1` is lower in “hERG current change (%, negative = inhibition) at 10uM” value: 2.91% for the first, -15.9% for the second.

Going from `COC(=O)C1(C)Cc2cc(OC(C)=O)c(OC(C)=O)cc2N1` (stereo not shown) to `Cc1oc(C(C)(C)C)cc1C(=O)Nc1cccc(/C=C/C(=O)O)c1`, the “hERG current change (%, negative = inhibition) at 10uM” value rises from -6.01% to 3.33%.

Going from `C[C@H](NC(=O)[C@@H]1CSC2c3ccccc3C(=O)N21)C(=O)NCCc1ccccc1` (stereo partly shown) to `O=C(O)c1ccc2c(c1)C(c1ccccc1)OC2=O` (stereo not shown), the “hERG current change (%, negative = inhibition) at 10uM” value falls from 11.6% to 3.47%.

Going from `CN(C)C(=N)c1n[nH]nc1SCc1ccc(Cl)c(Cl)c1.Cl` to `CN(C)CCCNC(=O)c1cc(C(=O)Cc2ccc(Cl)cc2)c[nH]1`, the “hERG current change (%, negative = inhibition) at 10uM” value falls from 3.28% to -46.2%.

First: CS(=O)(=O)N1CCC(C(=O)Nc2ccc(Oc3ccccc3)cc2)CC1
Second: O=C(CCc1nc2ccccc2c(=O)[nH]1)Nc1ccc(F)cc1
The “hERG current change (%, negative = inhibition) at 10uM” value of the first is higher: -11.9% for the first, -20% for the second.

Compared with `CCN1CCN(C(=O)C2CCN(Cc3nc(-c4cccc(Cl)c4)oc3C)CC2)CC1`, `Br.N=c1n(CCN2CCCCC2)c2ccccc2n1CC(=O)c1ccc(Cl)c(Cl)c1` is lower in “hERG current change (%, negative = inhibition) at 10uM” value: -42.9% for the first, -72.6% for the second.

First: O=C(CSc1ncn[nH]1)N1N=C(c2ccc(Cl)cc2)CC1c1ccco1 (stereo not shown)
Second: O=C(N/N=C/c1ccccn1)c1cc(-c2ccccc2Cl)n[nH]1
The “hERG current change (%, negative = inhibition) at 10uM” value of the first is lower: -12.5% for the first, 4.74% for the second.

First: c1ccc(OCCSc2nnnn2-c2ccccc2)cc1
Second: CCCCOc1ccccc1Cn1c(=O)oc2ccccc21
The “hERG current change (%, negative = inhibition) at 10uM” value of the first is lower: -17.6% for the first, 10.4% for the second.

Compared with `C#CCNC(=O)C1=C[C@@H](C2CC2)C[C@@H](OCc2ccc(CO)cc2)O1`, `COc1ccc(C(=O)NC2CCCc3ccccc32)cc1Br` (stereo not shown) is higher in “hERG current change (%, negative = inhibition) at 10uM” value: 4.4% for the first, 13% for the second.

First: Cn1nnnc1SCC(=O)C(C)(C)C
Second: CCSc1nnc2nc(C)cc(C)n12
The “hERG current change (%, negative = inhibition) at 10uM” value of the first is higher: 17.7% for the first, 8.03% for the second.

Going from `CCOC(=O)COn1c(=O)c(=O)n(OC)c2ccccc21` to `CC(C)Cn1c(SCC(=O)Nc2ccc3[nH]c(=O)[nH]c3c2)nc2ccccc2c1=O`, the “hERG current change (%, negative = inhibition) at 10uM” value falls from 17.8% to 5.13%.

Compared with `O=C(NCc1ccc2c(c1)OCO2)c1ccc(N2C(=O)C3CCCCC3C2=O)cc1` (stereo not shown), `COC(=O)c1ccc2c(c1)C(=O)/C(=C/c1ccc(O)cc1)O2` is higher in “hERG current change (%, negative = inhibition) at 10uM” value: -16.8% for the first, 18.2% for the second.

Compared with `Cc1ccc2c(c1)c1c(n2CC(O)Cn2ccnc2C)C(=O)CCC1` (stereo not shown), `CN1CCCN(C(=O)c2cc(=O)[nH]c3ccccc23)c2nc3ccccc3nc21` is higher in “hERG current change (%, negative = inhibition) at 10uM” value: -28.4% for the first, -6.12% for the second.

Compared with `O=C(Nc1cc(C(=O)N2CCCC2)ccc1N1CCCC1)c1ccccc1F`, `Cc1cc(C(=O)N/N=C/c2ccncc2)c2ccccc2n1` is higher in “hERG current change (%, negative = inhibition) at 10uM” value: -74.6% for the first, 15.6% for the second.

First: COc1ccc(C(c2c(C)[nH][nH]c2=O)c2c(C)[nH][nH]c2=O)cc1Br
Second: CC(C)c1ccc(/C=C/c2[nH]c(=O)[nH]c(=O)c2[N+](=O)[O-])cc1
The “hERG current change (%, negative = inhibition) at 10uM” value of the first is lower: 3.87% for the first, 12.5% for the second.

Going from `C=CCNC(=S)N/N=C(\C)c1cccc(OC)c1` to `C/C(=N\Nc1cccc2cccnc12)c1ccccn1`, the “hERG current change (%, negative = inhibition) at 10uM” value rises from -15.4% to 20%.

Compared with `Cc1cc(=O)oc2cc(NC(=S)NNC(=O)c3c(Cl)cnn3C)ccc12`, `Cc1cc(C)n(-c2ccc(Cl)c(C(=O)Nc3ccc(OC(F)(F)F)cc3)n2)n1` is lower in “hERG current change (%, negative = inhibition) at 10uM” value: 26% for the first, 4.24% for the second.

First: FC(F)(F)c1nnc2c(Sc3ccccc3)nc3ccc(Cl)cc3n12
Second: O=C(CNS(=O)(=O)/C=C/c1ccccc1)OC1CCOC1=O (stereo not shown)
The “hERG current change (%, negative = inhibition) at 10uM” value of the first is lower: 12.2% for the first, 15.9% for the second.

For `CC(=O)N1CCC2(CC1)C(C#N)=C(N)Oc1n[nH]c(C(F)(F)F)c12`, the “hERG current change (%, negative = inhibition) at 10uM” value was 10.9%.
